Laboratory results published in PubChem BioAssay AID1159614 (National Center for Advancing Translational Sciences (NCATS), 2016).
The campaign covered roughly 45,000 compounds. About 65 (0.1%) were called active. Calls come from the whole dose curve; as a rule, active = well fitted activation curve with a large enough effect; inconclusive = small, poorly fitted or top-dose-only effect; inactive = no such curve, though single readings can be large or run the other way. Some of the results follow.

molecular target: Galactocerebrosidase (Homo sapiens) (UniProt P54803); assay: A Novel Cell-Based Assay to Identify Small Molecules for B -Galactocerebrosidase; settings: 145M-Twi-hGALC-G270D cells (Twitcher mouse brain line with human GALC G270D), HMU-beta-Gal fluorescence, 48 h; series mostly up to 57.5 µM; activation: at the top concentration; note: 0% is about no effect; nearly all actives have a fitted effect of over 65% in size
Sequence of UniProt P54803 (P54803 whole entry, looked up): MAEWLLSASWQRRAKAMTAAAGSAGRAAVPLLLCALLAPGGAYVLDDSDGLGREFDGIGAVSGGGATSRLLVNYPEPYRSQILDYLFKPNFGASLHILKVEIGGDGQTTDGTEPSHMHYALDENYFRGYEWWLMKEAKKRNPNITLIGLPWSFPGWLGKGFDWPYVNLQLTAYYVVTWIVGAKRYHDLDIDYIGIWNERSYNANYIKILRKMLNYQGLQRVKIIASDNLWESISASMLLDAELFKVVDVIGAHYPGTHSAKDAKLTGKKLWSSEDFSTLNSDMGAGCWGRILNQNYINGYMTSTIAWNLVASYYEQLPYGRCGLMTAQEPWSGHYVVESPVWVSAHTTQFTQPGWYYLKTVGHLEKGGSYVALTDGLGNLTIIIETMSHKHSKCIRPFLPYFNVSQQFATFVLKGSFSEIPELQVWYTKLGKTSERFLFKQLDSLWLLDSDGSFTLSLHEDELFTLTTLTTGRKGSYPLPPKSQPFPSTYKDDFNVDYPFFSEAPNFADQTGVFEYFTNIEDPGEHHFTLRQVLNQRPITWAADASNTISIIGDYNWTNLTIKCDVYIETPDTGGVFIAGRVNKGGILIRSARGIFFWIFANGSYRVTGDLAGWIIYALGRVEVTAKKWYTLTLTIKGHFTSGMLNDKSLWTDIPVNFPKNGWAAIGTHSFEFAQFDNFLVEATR
Text: Lysosomal storage diseases (LSDs) are caused by genetic mutations in genes encoding proteins important for normal lysosomal function. Globoid cell leukodystrophy (GLD), mostly known as Krabbe disease, is a prototype of the neurological LSDs caused by deficiency of beta-galactocerebrosidase (GALC). In brain specimens of GLD patients, psychosine levels are substantially elevated. At elevated concentrations, psychosine becomes cytotoxic to neuronal cells, particularly to oligodendrocytes (OLG), neural cells responsible for myelin formation. Therefore, the biochemical disturbances in GLD are manifested by different degrees of brain demyelination resulting in a broad spectrum of neurological manifestations. Most of the FDA-approved therapies are based on enzyme replacement therapeutic (ERT) agents, which treat non-neurological symptoms of Gaucher disease, Fabry disease, few mucopolysaccharidoses and Pompe disease. Unfortunately, in GLD, a primarily neurological LSD, ERT agents, as large molecular weight molecules unable to cross the blood-brain barrier, which makes this an inefficacious therapeutic approach. In GLD, increasing the residual GALC activity just above the critical threshold (~10% of wild type enzymatic activity), the cytotoxic levels of psychosine will be reduced, avoiding the OLGs apoptosis and the subsequent demyelination process. This will translate in disease stabilization and amelioration of GLD patient symptoms.
A cell-based assay in 1,536-well plate format was developed to implement a quantitative high-throughput screening (qHTS) assay using GLD-disease relevant cells to identify small molecules that produce enhancements of the residual enzymatic activity levels of mutants GALC found and prevalent in GLD patients. Compounds that are active may therefore have some therapeutic application for GLD. After the treatment of live cells for a determined period, using a fluorescent GALC specific substrate, the mutant residual GALC activity is measured. This cell-based qTHS assay was used to screen part of the MLPCN library for small molecule able to increase the mutant GALC enzymatic activity. In this assay, increased fluorescent signal corresponds to enhanced levels of mutant GALC residual enzymatic activity. Activation is the desired outcome for this assay.
NIH Chemical Genomics Center [NCGC]
NIH Molecular Libraries Probe Centers Network [MLPCN]
Assay Submitter (PI): Gustavo Maegawa MD,PhD, University of Florida, Gainesville, FL
2)#Two cell lines were established for the assay: 145M-Twi-hGALC-G270D (brain-derived Twitcher cell line stably expressing human GALC-G270D) and 145M-Twi-hGALC-WT (same 145M-Twi stably expressing human GALC wild type). The Twitcher is the murine C57B/6 model for GLD with naturally occurring homozygous nonsense GALC mutation. The 145M-Twi cell line was established at Maegawa lab (Ribbens J et al 2014).
a.#Media: DMEM/F12 (1:1) with 10% fetal bovine-serum (FBS) with penicillin/streptomycin (PS-1X - 100 I.U./mL of penicillin+100 ug/mL of streptomycin).
b.#The 6-Hexadecanoylamino-4-methylumbelliferyl-b-D-galactoside (HMU-B-gal) substrate was prepared as per Wiederschain et al 1992. Using 20-mL borosilicate tubes, 2.20 mg of HMU-b-Gal was added in each tube to prepare substrate-film with a final air-nitrogen stream evaporation to remove all diluent solvents.
c.#The HMUb-Gal substrate buffer consists of 0.2 M Na2HPO4 (sodium phosphate dibasic)/ 0.1 M Citric Acid with the pH adjusted to 5.2 using HCl. Sodium Azide at 0.02% and Sodium Taurocholate (NaTC) at 1 mg/mL were added to this substrate buffer.
d.#The HMU-b-Gal stopping buffer consist of 0.5 M NaHCO3 (sodium bicarbonate) /0.5 M Na2CO3 (sodium carbonate). […] Triton X-100 at 0.25% was added.
4)#Preparation of HMU-b-Gal substrate tubes
Adding 18.6 mL of the HMUb-Gal substrate buffer to each 20-mL tube (2.20 mg of HMU-b-Gal) will reach a concentration of 0.2 mM. Vortex well the tube until the solution is fully homogenized (clear cloudy solution). […]

activation, inactive:
CCN(CC)c1ccc(NC(=O)CCS(=O)(=O)c2cccc3nsnc23)c(C)c1 -17.8%
COc1ccc(C(=O)NCC(c2cccnc2)N2CCc3ccccc3C2)cc1 (centres undefined) -12.2%
COc1ccccc1CCNC(=O)c1cc2c(=O)n3cccc(C)c3nc2n1C -9.05%
Cc1csc2nc(COC(=O)c3ccccc3NC(=O)c3ccccc3Cl)cc(=O)n12 -11.1%
CNC(=O)C1CCC(Cn2c(=O)c3sccc3n(Cc3ccccc3)c2=O)CC1 (centres undefined) -11.6%
CCc1ccc(NC(=O)N2CC=C(c3c[nH]c4ccccc34)CC2)cc1 -4.61%
COc1cc(OC)c(NC(=O)C(C)n2c(=O)cc(-c3ccccc3)c3c(C)nn(C)c32)cc1Cl (centres undefined) -4.53%
CCOc1ccc(-c2nc(Cn3c(=O)cc(-c4ccccc4)c4c(C)nn(C)c43)c(C)o2)cc1OC -0.88%
Cc1ccccc1NC(=O)CSc1ncc2c(n1)-c1ccccc1N(C)S2(=O)=O -13%
CCOc1ccccc1NC(=O)c1c(NC(=O)C(C)Oc2cccc(Cl)c2)sc2c1CCCCC2 (centres undefined) -2.08%
Cc1cc(C)c2c(n1)nn1c(C)c(CCC(=O)Nc3ccc(C)c(Cl)c3)c(C)nc21 5.12%
Cc1cn2c(=O)cc(COC(=O)c3cccc(NC(=O)C(C)Oc4ccccc4)c3)nc2s1 (centres undefined) -6.57%
CCSC1=NC2(CCN(C(=O)NC3CCCCC3)CC2)N=C1c1ccc(C)cc1 -12.2%
Cc1cc(S(=O)(=O)Nc2cc3c(cc2C)n(C)c(=O)c(=O)n3C)ccc1F -3.22%
COc1ccc(Nc2cc(C(=O)NCCCN(C)Cc3ccccc3)c3ccccc3n2)cc1OC 10.6%
COc1cccc(OCc2nc3ccccc3n2Cc2ccccc2)c1 -14.8%
COc1cccc(CNC(=O)C(=O)NCC(c2cccs2)S(=O)(=O)c2cccs2)c1 (centres undefined) -9.45%
COc1ccc(-n2nc3cc(C)c(NC(=O)COc4cccc(C)c4)cc3n2)cc1 12.3%
Cc1cccc(S(=O)(=O)c2cn(Cc3ccccc3)c3cc(N4CCC(C)CC4)c(F)cc3c2=O)c1 -22.7%
CC1=C(C(=O)Nc2ccc(Cl)cc2)C(c2cccs2)n2nc(SCc3cccc(Cl)c3)nc2N1 (centres undefined) 5.42%
CCn1c(Oc2ccc(F)cc2F)nc2c1c(=O)n(C)c(=O)n2C -11.3%
CCOc1ccc(CC(=O)Nc2c(C(=O)c3ccc(Cl)cc3)oc3ccccc23)cc1OCC -14.8%
CCc1cc2c(cc3c(=O)n(CC(=O)NCc4cccc(Cl)c4)nc(CC)n32)s1 -10.1%
CCC1=Nc2cc(C(=O)NCCc3ccccc3)ccc2Sc2ccc(Cl)cc21 -16.1%
COC(=O)c1ccc(NC(=O)c2cc3cc(C)ccc3n2C)cc1 -22.3%
COc1ccc(NC(=O)CSc2nc3ccccc3n2CC(=O)NCc2ccc(F)cc2)cc1 -16.8%
COc1ccc(NC(=O)c2ccc(-c3nc(COc4ccccc4)c(C)o3)cc2)cc1 -6.01%
CCCCSCCCNC(=O)c1cn(CC)c2ccc(S(=O)(=O)N3CCOCC3)cc2c1=O -13.1%
Nc1ccc(S(=O)(=O)c2ccc(N)cc2)cc1 -6.54%
COc1ccc(S(=O)(=O)N2CCC(C(=O)Nc3ccc(Oc4ccccc4)cc3)CC2)cc1OC -4.04%
CCOc1ccc(NC(=O)CSc2nnc3c(C)cc4ccccc4n23)cc1 -13.3%
Cc1nn(-c2ccccc2)c2c1N(CCCC(=O)NCc1ccc(OC(C)C)cc1)C(=O)CS2 -9.35%
CC1CCc2nc3ccc(S(=O)(=O)N4CCC(C(=O)NCc5ccccc5Cl)CC4)cc3c(C(=O)O)c2C1 (centres undefined) 3.96%
Cc1ccc2c(CC(=O)Nc3ccc(S(=O)(=O)N4CCC(C)CC4)cc3)coc2c1 -6.53%
CCc1ccccc1NC(=O)Cn1nc(-c2cc(C)ccc2C)c2c(c1=O)CCCC2 -6%
O=c1c2[nH]c3ccccc3c2nc(SCc2ccccc2F)n1-c1ccc(F)cc1 -22.5%
COC(=O)c1ccccc1NC(=O)Cn1nc(C)c2nn(-c3ccc(Cl)cc3)c(C)c2c1=O -6.71%
CCCn1c2ccccc2c2cnn(CC(=O)Nc3ccccc3OC)c(=O)c21 2.07%
OC[C@H]1O[C@@H](Oc2ccc(O)cc2)[C@H](O)[C@@H](O)[C@@H]1O -10.8%
COc1cc(NC(=O)Nc2nnc(N3CCCCC3)s2)cc(OC)c1 -19.4%
Cc1cccc(NC(c2cccc(Cl)c2)c2ccc3cccnc3c2O)n1 (centres undefined) -21.9%
O=C(CSc1nc2c(c(=O)[nH]1)CN(Cc1ccc3c(c1)OCO3)CC2)Nc1cc(F)ccc1F -11.5%
Cc1ccccc1OCC(=O)Nc1ccc(OCc2cc(=O)n3ccccc3n2)cc1 -4.33%
COc1ccc(Cl)cc1NC(=O)C1CCCN(S(=O)(=O)c2ccc3c(c2)CCCC(=O)N3)C1 (centres undefined) -31.5%
Cc1ccc(CNC(=O)c2ccc3oc(=O)n(Cc4ccccc4)c3c2)cc1 -6.88%
COc1ccc(-c2cn3nc(N4CCCC(C(=O)Nc5ccccc5F)C4)sc3n2)cc1 (centres undefined) -14%
Cc1nn(CC(=O)Nc2ccc(C(C)C)cc2)c(=O)c2c(C)n(-c3ccc(Cl)cc3)nc12 -7.92%
COc1ccc(NC(=O)CSc2nccn2C2CCCC2)cc1OC -2.77%
CCOc1ccccc1N(C)C(=O)c1sc2nc3n(c(=O)c2c1C)CCCC3 -14.4%
CCCCN(CCCNC(=O)c1cc(Nc2ccc(OC)cc2OC)nc2ccccc12)Cc1ccccc1 -2.95%
CCCCOC(=O)c1ccc(NC(=O)C2(c3cccs3)CCOCC2)cc1 -13.6%
COc1ccc(-c2nnc(SCC(=O)Nc3cccc(C)c3)s2)cc1 -8.35%
CC(=O)N1CCc2cc(CNS(=O)(=O)c3cccs3)ccc21 1.98%
COc1ccc(NC(=O)CSc2nc(-c3ccccc3)cc(-c3cc(OC)c(OC)c(OC)c3)c2C#N)c(OC)c1 -9.24%
CCOC(=O)c1c(NC(=O)CSc2cn(CCNC(=O)c3ccc(OC)cc3)c3ccccc23)sc2c1CCC2 -11.9%
COc1ccccc1N1CCN(S(=O)(=O)CCNC(=O)c2cc(=O)c3ccccc3o2)CC1 0.915%
CC(C)(Oc1ccc(Cl)cc1)C(=O)Nc1ccc(-c2nc3ncccc3o2)cc1 -6.19%
Cc1ccc(Cn2cc(S(=O)(=O)c3ccccc3)c(=O)c3cc(F)c(N4CCOCC4)cc32)cc1 -10.2%
COc1ccc(NC(=O)C(c2ccc(OC)cc2)N(C)C(=O)Cc2cccs2)cc1 (centres undefined) -21.1%
Cn1ccc2cc(S(=O)(=O)N3CCN(C(=O)Nc4cccc(F)c4)CC3)ccc21 -0.644%
COc1ccc2c(c1)c1c3n2CCN(C)C3=NCC1 -11%
CC(C)C(C)(C)C(C)(C)C(C)(C)S -5.6% [at 114 µM]
COc1ccc(C(CNC(=O)COc2cc(C)c(Cl)c(C)c2)N2CCCCC2)cc1 (centres undefined) -10.8%
Cc1ccccc1C(=O)Nc1cccc(-c2nc3cccnc3s2)c1 -3.98%
CCCN(CCC)C(=O)c1c[nH]c2ccc(S(=O)(=O)N(C)c3ccc(Cl)cc3)cc2c1=O -10.8%
OCCN1CCN(CCCN2c3ccccc3Sc3ccc(Cl)cc32)CC1 -5.68%
COc1ccc(Cn2ccc3nc(C)c(C(=O)Nc4ccc(OC)c(OC)c4)cc3c2=O)cc1 -8.85%
O=C(CSc1nc(=O)n(Cc2ccncc2)c2c1CCC2)Nc1ccccc1 -11.3%
COc1cccc(N2CCN(C(=O)CCn3nc(C)c(S(=O)(=O)N4CCCC4)c3C)CC2)c1 -8.37%
CCn1cc(C(=O)N2CCN(c3ccccc3OC)CC2)c2cc(OC)c(OC)cc2c1=O -10.9%
N[C@H]1C(O)O[C@H](CO)[C@@H](O)[C@@H]1O (some centres undefined) -8.77%
CCc1ccc(OCC(=O)Nc2c(C(=O)c3ccc(Br)cc3)oc3ccccc23)cc1 -10.5%
CCC(Oc1ccccc1)C(=O)Nc1nnc(S(=O)(=O)N2CCCC2)s1 (centres undefined) -6.05%
CCOc1cccc2sc(=NC(=O)c3ccc(S(=O)(=O)N4CCOCC4)cc3)n(C)c12 1.61%
CCc1ccc(NC(=O)c2ccc(CNS(=O)(=O)c3ccc4c(c3)C(C)(C)C(=O)N4C)cc2)cc1 -9.61%
CCOC(=O)c1cnc2c(OC)cccc2c1N1CCN(c2ccccc2F)CC1 -31.5%
COc1ccc(CCNC(=O)CCCCn2c(=O)c3ccccc3n(Cc3cccc(C)c3)c2=O)cc1OC -14.9%
CCOc1ccc(CCNc2ncnc3onc(C)c23)cc1OCC -13.8%
COc1ccc(CNC(=O)c2ccc(-c3nc(CSc4ccccc4)c(C)o3)cc2)cc1 -9.86%
COc1ccc(C(=O)Nc2ccc3c(c2)CCCN3S(=O)(=O)c2ccc(C)cc2)cc1 -1.06%
COc1ccc(NC(=O)c2oc3ccccc3c2NC(=O)c2cc(=O)c3ccccc3o2)cc1 -7.99%
CCCCN(CCCC)CCn1cnc2c([nH]c3ccc(OC)cc32)c1=O 0.464%
Cc1ccc2c(c1)-c1nc(-c3ccccc3)cc(-c3ccccc3)c1CO2 -12.3%
C=C1C[C@H]2[C@@H]3C=C(C)C4=CC(=O)CC[C@]4(C)[C@H]3CC[C@]2(C)[C@@]1(OC(C)=O)C(C)=O -9.99%
CCc1ccc(-c2nc(CN3CCCC(C(=O)NCc4ccccc4Cl)C3)c(C)o2)cc1 (centres undefined) -2.71%
COc1cc(C(=O)N(CCCN(C)C)c2nc3c(OC)cccc3s2)cc(OC)c1OC -5.43%
O=C(NC1CCCC1)c1ccc2c(c1)N(Cc1c(F)cccc1Cl)C(=O)c1ccccc1S2 -0.984%
Cc1nn2c(=O)cc(COC(=O)c3ccccc3NC(=O)C3CCCCC3)nc2s1 -10.2%
CCOc1ccc(N(CC)S(=O)(=O)N2CCCC(C(=O)NCc3ccccc3OCC)C2)cc1 (centres undefined) -19.8%
COc1cc(-c2cc3n(C)c(C)c(CCC(=O)NC4CCC(C)CC4)c(=O)n3n2)cc(OC)c1OC (centres undefined) -7.02%
O=C(NCCc1csc(-c2cccc(F)c2)n1)c1ccco1 -3.95%
NS(=O)(=O)c1ccc(CCNC(=O)Cn2c(=O)c3cccn3c3ccc(F)cc32)cc1 -6.93%
COc1ccc2c(c1)CC(C(=O)Nc1c(C)cc(C)cc1C)CO2 (centres undefined) -5.75%
Cc1nn(CC(=O)NC(C)c2ccccc2)c(=O)c2cc3occc3n12 (centres undefined) -5.93%
